The list shows a part of the results.

The assay relates to HepG2. The assay is described as follows: cytotoxicity call (relative viability < 0.9). The note with it: 10 µM.
Consider `C[C@@H]1CN([C@@H](C)CO)C(=O)Cc2cc(NS(=O)(=O)c3ccc(F)cc3)ccc2O[C@H]1CN(C)S(C)(=O)=O`, for which the cytotoxicity call was “inactive”.

Turning to `COC(=O)C1=C(C#N)NC(C)=C(C(=O)OC(C)C)C1c1cccc([N+](=O)[O-])c1` (stereo not given), the cytotoxicity call is “active”.

Turning to `COc1ccc(NC(=O)N(C)C[C@@H]2Oc3cc(C#CCN(C)C)ccc3S(=O)(=O)N([C@@H](C)CO)C[C@H]2C)cc1`, the cytotoxicity call is “inactive”.

`C[C@@H]1CN([C@@H](C)CO)C(=O)Cc2cc(NC(=O)Nc3ccc(C(F)(F)F)cc3)ccc2O[C@@H]1CN(C)C(=O)Nc1ccccc1`: the cytotoxicity call is “active”.

Consider `Cc1noc(C)c1S(=O)(=O)Nc1ccc2c(c1)C(=O)N([C@@H](C)CO)C[C@@H](C)[C@H](CN(C)S(C)(=O)=O)O2`, for which the cytotoxicity call was “inactive”.

Consider `COCC(=O)N1C[C@@H](C)[C@H](OC)CN(C)C(=O)c2ccc(NC(=O)Nc3cccc(F)c3)cc2OC[C@H]1C`, for which the cytotoxicity call is “inactive”.

With `C[C@@H]1CN([C@H](C)CO)C(=O)c2cc(NS(C)(=O)=O)ccc2O[C@@H]1CN(C)S(=O)(=O)c1cn(C)cn1`, the cytotoxicity call was “inactive”.

With `COc1ccc(-c2cnc3c(c2)C(=O)N([C@@H](C)CO)C[C@@H](C)[C@H](CN(C)C(=O)C2CCOCC2)O3)cc1`, the cytotoxicity call was “inactive”.

Regarding `CC1CC2C(C(O)CC3(C)C2CCC3(O)C(=O)COC(=O)CCC(=O)[O-])C2(C)C=CC(=O)C=C12.[Na+]` (stereo not given), the cytotoxicity call was “inactive”.

Regarding `COc1ccc(S(=O)(=O)Nc2ccc3c(c2)C(=O)N([C@H](C)CO)C[C@H](C)[C@H](CN(C)C(=O)c2ccccc2)OCCCC[C@@H](C)O3)cc1`, the cytotoxicity call was “inactive”.

Consider `C[C@@H]1CCCCO[C@H](CN(C)C(=O)NC2CCCCC2)[C@H](C)CN([C@@H](C)CO)C(=O)c2cc(NC(=O)Nc3cccc4ccccc34)ccc2O1`, for which the cytotoxicity call is “inactive”.

As for `C[C@@H]1CN([C@H](C)CO)C(=O)c2cc(NS(=O)(=O)c3cn(C)cn3)ccc2O[C@@H]1CN(C)S(=O)(=O)c1ccc(Cl)cc1`, the cytotoxicity call is “inactive”.

On to `O=C(C[C@@H]1CC[C@@H]2[C@H](COC[C@@H](O)CN2C(=O)Nc2ccc(Cl)c(Cl)c2)O1)NCc1ccncc1`, for which the cytotoxicity call was “active”.

Turning to `C[C@H](CO)N1C[C@H](C)[C@@H](CN(C)CC2CCCCC2)OCCCC[C@H](C)Oc2ccc(NC(=O)c3ccncc3)cc2C1=O`, the cytotoxicity call is “inactive”.

For the molecule `C[C@@H]1CCCCO[C@H](CN(C)C(=O)Nc2ccc(C(F)(F)F)cc2)[C@@H](C)CN([C@@H](C)CO)C(=O)c2cc(NS(=O)(=O)c3ccc(F)cc3)ccc2O1`, the cytotoxicity call is “inactive”.

With `C[C@@H]1CN([C@H](C)CO)C(=O)c2cc(NS(=O)(=O)c3ccc(Cl)cc3)ccc2O[C@@H](C)CCCCO[C@@H]1CN(C)C(=O)c1ccncc1`, the cytotoxicity call is “inactive”.

In the case of `Nc1ccncc1N`, the cytotoxicity call is “inactive”.

Consider `C[C@@H]1CN([C@@H](C)CO)C(=O)c2cc(NC(=O)Nc3cccc4ccccc34)ccc2O[C@@H](C)CCCCO[C@H]1CN(C)Cc1ccc2c(c1)OCO2`, for which the cytotoxicity call is “active”.

Take `Cc1ccc(S(=O)(=O)Nc2cccc3c2O[C@@H](CN(C)C(=O)Nc2ccc(C(F)(F)F)cc2)[C@@H](C)CN([C@H](C)CO)C3=O)cc1`: the cytotoxicity call is “inactive”.

For the molecule `C[C@H]1COC(=O)[C@H](Cc2ccc(F)cc2)CCC=CC[C@@H](CC(=O)N[C@H](CO)Cc2ccccc2)C(=O)N1`, the cytotoxicity call is “inactive”.

Take `C[C@H]1CN([C@@H](C)CO)S(=O)(=O)c2ccc(C#CC3(O)CCCC3)cc2O[C@H]1CN(C)C(=O)Cc1ccncc1`: the cytotoxicity call was “inactive”.

On to `C[C@@H](N)c1ccc(F)cc1F`, for which the cytotoxicity call is “inactive”.

In the case of `COc1ccc(NC(=O)Nc2ccc3c(c2)C(=O)N([C@H](C)CO)C[C@@H](C)[C@@H](CN(C)C(=O)C2CCCCC2)OCCCC[C@H](C)O3)cc1`, the cytotoxicity call is “inactive”.

Take `CN(CC(=O)NCc1ccccn1)S(=O)(=O)c1cc(Br)cnc1N`: the cytotoxicity call is “active”.

`C[C@H](CO)N1C[C@H](C)[C@H](CN(C)C(=O)CCCN(C)C)OCCCC[C@H](C)Oc2ccc(NC(=O)Nc3cccc4ccccc34)cc2C1=O`: the cytotoxicity call was “inactive”.

On to `COc1ccc(CN(C)C[C@@H]2Oc3ccc(NS(C)(=O)=O)cc3CC(=O)N([C@@H](C)CO)C[C@H]2C)cc1`, for which the cytotoxicity call is “inactive”.

As to `COc1ccc(NC(=O)N(C)C[C@@H]2OCCCC[C@H](C)Oc3ccc(NC(=O)NC4CCCCC4)cc3C(=O)N([C@@H](C)CO)C[C@@H]2C)cc1`, the cytotoxicity call is “inactive”.

Consider `COc1ccc(NC(=O)N(C)C[C@H]2OCCCC[C@@H](C)Oc3ccc(NC(=O)Nc4ccc5c(c4)OCO5)cc3C(=O)N([C@H](C)CO)C[C@@H]2C)cc1`, for which the cytotoxicity call was “inactive”.

Regarding `CCCC(=O)Nc1ccc2c(c1)C(=O)N(C)C[C@@H](OC)[C@H](C)CN(C(=O)Cc1ccccn1)[C@H](C)CO2`, the cytotoxicity call was “inactive”.

With `c1ccc2nc(C3=NCCN3)cnc2c1`, the cytotoxicity call is “inactive”.

With `CCNC(=O)c1cc2c(c(-c3cccc(-c4cccc(F)c4)c3)n1)[C@H](CCO)N([S@@](=O)C(C)(C)C)C2`, the cytotoxicity call was “active”.

In the case of `Cc1ccc(-c2cnc3c(c2)C(=O)N([C@@H](C)CO)C[C@H](C)[C@H](CN(C)C(=O)Cc2ccncc2)O3)cc1`, the cytotoxicity call is “inactive”.

For the molecule `CN(CCN)C1CCCCC1`, the cytotoxicity call is “inactive”.

On to `C[C@@H]1CCCCO[C@@H](CN(C)C(=O)C2CCCCC2)[C@H](C)CN([C@H](C)CO)C(=O)c2cc(NS(=O)(=O)c3ccc(F)cc3)ccc2O1`, for which the cytotoxicity call is “inactive”.

For `C[C@@H]1CN([C@@H](C)CO)C(=O)c2cc(NS(=O)(=O)c3ccc(Cl)cc3)ccc2O[C@@H](C)CCCCO[C@H]1CN(C)Cc1ccncc1`, the cytotoxicity call is “inactive”.

As to `C[C@H]1CN([C@@H](C)CO)C(=O)Cc2cc(NC(=O)CCN3CCOCC3)ccc2O[C@H]1CN(C)C(=O)Nc1ccccc1`, the cytotoxicity call is “inactive”.

Turning to `C[C@@H]1CCCCO[C@H](CN(C)Cc2ccc(C(F)(F)F)cc2)[C@@H](C)CN([C@@H](C)CO)C(=O)c2cc(NC(=O)CCCN(C)C)ccc2O1`, the cytotoxicity call was “active”.

Turning to `O=C(C[C@H]1CC[C@H]2[C@@H](COC[C@@H](O)CN2S(=O)(=O)c2ccc(Oc3ccccc3)cc2)O1)NC1CCC1`, the cytotoxicity call is “inactive”.

Consider `COc1ccc(NC(=O)N(C)C[C@@H]2OCCCC[C@@H](C)Oc3ccc(NC(=O)CCC(F)(F)F)cc3C(=O)N([C@H](C)CO)C[C@H]2C)cc1`, for which the cytotoxicity call is “inactive”.

As to `C[C@@H]1CN([C@H](C)CO)C(=O)Cc2cc(NC(=O)CCN3CCOCC3)ccc2O[C@@H]1CN(C)C(=O)Nc1ccccc1`, the cytotoxicity call was “inactive”.
